Out of some 310,000 compounds screened, about 2,200 (0.71%) showed an effect of 50% or more. The effect is printed as a negative number. Some of the results follow.
biological target: human ether-à-go-go-related gene (hERG) potassium channel (human, UniProt Q12809); assay: primary screen, population patch clamp on CHO cells stably expressing hERG
Sequence (Q12809 whole entry, looked up): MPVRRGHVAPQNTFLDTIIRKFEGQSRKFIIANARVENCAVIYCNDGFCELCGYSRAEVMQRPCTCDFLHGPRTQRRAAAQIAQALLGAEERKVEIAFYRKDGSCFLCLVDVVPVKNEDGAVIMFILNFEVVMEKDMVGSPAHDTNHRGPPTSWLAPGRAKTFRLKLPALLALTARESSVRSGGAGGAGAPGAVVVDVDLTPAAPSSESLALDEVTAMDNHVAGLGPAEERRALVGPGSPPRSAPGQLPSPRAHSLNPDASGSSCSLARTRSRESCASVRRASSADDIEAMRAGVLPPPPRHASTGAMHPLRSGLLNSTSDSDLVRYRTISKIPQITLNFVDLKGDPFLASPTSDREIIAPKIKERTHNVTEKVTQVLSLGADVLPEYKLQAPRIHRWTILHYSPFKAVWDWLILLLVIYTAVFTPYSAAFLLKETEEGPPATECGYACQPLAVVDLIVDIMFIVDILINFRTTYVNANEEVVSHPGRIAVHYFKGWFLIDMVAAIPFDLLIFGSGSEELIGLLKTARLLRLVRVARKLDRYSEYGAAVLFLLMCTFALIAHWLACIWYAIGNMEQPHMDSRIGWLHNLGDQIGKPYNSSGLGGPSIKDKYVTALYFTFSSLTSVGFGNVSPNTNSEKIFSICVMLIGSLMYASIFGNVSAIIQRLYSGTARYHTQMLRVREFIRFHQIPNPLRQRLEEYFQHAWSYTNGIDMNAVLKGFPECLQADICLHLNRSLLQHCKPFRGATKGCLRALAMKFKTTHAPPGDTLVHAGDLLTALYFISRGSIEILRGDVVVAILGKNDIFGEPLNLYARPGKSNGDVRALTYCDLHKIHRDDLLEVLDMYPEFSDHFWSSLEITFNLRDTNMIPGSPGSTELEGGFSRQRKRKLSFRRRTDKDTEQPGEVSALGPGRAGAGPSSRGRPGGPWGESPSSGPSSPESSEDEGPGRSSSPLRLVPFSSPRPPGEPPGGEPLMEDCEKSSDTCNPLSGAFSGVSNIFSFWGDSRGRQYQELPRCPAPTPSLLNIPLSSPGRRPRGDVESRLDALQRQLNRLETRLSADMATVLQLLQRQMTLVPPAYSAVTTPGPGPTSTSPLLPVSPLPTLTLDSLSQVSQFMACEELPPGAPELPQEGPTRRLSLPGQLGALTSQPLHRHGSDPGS

SMILES	hERG current change (%, negative = inhibition) at 1uM [%]
CN(CCOC(=O)/C=C/c1ccco1)Cc1ccccc1	9.76
CC1CCCCN1Cc1ccc(-c2nn[nH]n2)cc1 (stereo not shown)	19.1
O=C(Nc1ccc(Cl)cn1)c1ccc(Br)c(S(=O)(=O)N2CCCCC2)c1	13.3
CN(C)/C=N/c1nc(-c2ccc3ccccc3c2)cs1	9.84
CCCCCc1ccc(-c2cn(Cc3ccc(C(=O)c4ccccc4)cc3)nn2)cc1	13.7
O=C(NC1CCCCC1)NC1(C(=O)NCCCN2CCOCC2)CCCCC1	4.58
CC(C)N1CC(C(=O)Nc2nc3ccccc3s2)CC1=O (stereo not shown)	6.73
CNc1nnc(-c2ccco2)s1	14.3
CCc1ccc(OCC(=O)Nc2ccc(S(=O)(=O)Nc3cc(C)on3)cc2)c(Br)c1	14.2
CCCSc1nc(N)nc(-c2cccs2)c1C#N	4.01
Clc1ccc(-n2c(SC/C=C/c3ccccc3)nnc2-c2cccnc2)cc1	3.6
CCC(=O)N(CCc1ccc(S(N)(=O)=O)cc1)C1CC(=O)N(c2ccc(OC)cc2)C1=O (stereo not shown)	9.87
C=CCC1(C#N)C(=S)NC2=C(C(=O)CC(C)(C)C2)C1c1ccc(Br)cc1 (stereo not shown)	12.3
Cc1ccc(S(=O)(=O)N2[C@@H](c3ccc(F)cc3)C(C(=O)O)=CC[C@H]2c2ccc(Cl)cc2)cc1	5.44
O=C(CN1C2CCCC1CC(NC(=O)C1CCCCC1)C2)Nc1ccccc1C(F)(F)F (stereo not shown)	3.36
COc1ccc(OC[C@@H](O)CNC(=O)c2cccc3c2C(=O)c2ccc(Cl)cc2S3(=O)=O)cc1	-0.421
CCCN(CCC)C(=O)C1CCC(CNS(=O)(=O)c2cccc3nsnc23)CC1 (stereo not shown)	-16.1
COc1ccccc1-c1cc(C(=O)N/N=C/c2cccs2)c2ccccc2n1	10.7
O=C(CN1CCN(Cc2ccccc2)CC1)Nc1cccc(Cl)c1	-27.7
CN(CC(=O)Nc1cccc(S(=O)(=O)N(C)C)c1)Cc1ccccc1	16.6
CC(C)CCN1CCC(n2nccc2NC(=O)C2CCOC2)CC1 (stereo not shown)	16.3
O=C(c1ccc2snnc2c1)N1CCN(c2ccccc2)CC1	-5.25

SMILES	hERG current change (%, negative = inhibition) at 1uM [%]
Cc1ccc(C2C(S(C)(=O)=O)=C(O)C(=O)N2c2ccccc2)cc1.Nc1ccccc1 (stereo not shown)	3.91
Cc1ccc(COc2ccc(-c3nnco3)cc2)cc1	15.1
Cc1nn(C)c(C)c1NC(=O)c1ccnn1C	-3.47
CCOC(=O)c1nnc2ccnn2c1N	18.3
O=C1NC(=O)N(c2ccccc2)C(=O)/C1=C\C=C\c1ccccc1	12.1
Cc1ccc(NC(=O)CSCCc2ccccn2)nc1	7.11
COc1ccccc1NC(=O)c1sc2nc3n(c(=O)c2c1C)CCC3	13.1
COc1ccc(-c2noc(CCC(=O)NCCN(C)Cc3ccccc3)n2)cc1	-5.25
COc1ccc(CN2CCC(C(=O)NCCc3ccc(OC)c(OC)c3)CC2)c(OC)c1	6.06
Cc1cc(NC(=O)CCC(=O)N(CC(=O)NCC2CCCO2)c2ccccc2C)no1 (stereo not shown)	14.3
COc1ccc(CCN2CCCn3c2nc2c3c(=O)n(Cc3ccccc3F)c(=O)n2C)cc1OC	-2.77
CC1=C(C#N)C(=O)N(C2CCS(=O)(=O)C2)C(=O)/C1=C\c1ccco1 (stereo not shown)	11.6
COc1ccc(CCNC(=O)COC(=O)c2ccc(F)c(S(=O)(=O)N3CCOCC3)c2)cc1	-9.09
CNC(=O)C1=NCCCc2cc(OC)c(OC)cc21	-7.35
COc1ccccc1CNC(=O)C1CC(c2cccc([N+](=O)[O-])c2)=NO1 (stereo not shown)	-6.28
C=CCn1c(SCC(=O)c2ccc(Br)cc2)nnc1C(C)NC(=O)Cc1ccc(OC)cc1 (stereo not shown)	-4.53
O=C(CSc1nc2ccccc2[nH]1)Nc1nc(-c2cccc(Br)c2)cs1	16.2
COc1ccc(NC(=O)CS(=O)(=O)c2cn(CC(=O)N3CCCC3)c3ccccc23)c(OC)c1	6.44
CCn1cc(CNC(=O)CCc2nnc(CCC3CCCCC3)o2)cn1	11.2
Cc1ccc(NC(=S)N2CCCC(c3nc4ccc(C)cc4[nH]3)C2)c(C)c1 (stereo not shown)	3.52
Cl.Oc1ccccc1C1NCc2ccccc2-n2cccc21 (stereo not shown)	14.8

Reference: article PMC4336329 (PLoS ONE, 2015)
